Test results taken from the supplement of paper PMC4967469.

Columns and labels:
Test in all cases: Viability of human cancer cell lines after 72 h of drug (GDSC screen)
YM201636 = compound: Nc1ccc(C(=O)Nc2cccc(-c3nc(N4CCOCC4)c4oc5ncccc5c4n3)c2)cn1 [YM201636]; conditions: top dose 5.12 µM; top dose inferred
Procedure: (§1)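 Human cancer cell lines in 384-well plates, medium with 10% serum, drug for 72 h over a 256-fold dose range (nine 2-fold or five 4-fold steps up to the top dose). Adherent lines were fixed and stained with the nucleic acid dye Syto60, suspension lines read with resazurin; signal relative to control wells, capped at 0 and 100%. One two-parameter sigmoid per drug and line, fitted in a mixed model over all curves with the slope shared within a line.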

EX-527 = compound: NC(=O)C1CCCc2c1[nH]c1ccc(Cl)cc21 [EX-527]; conditions: top dose 20 µM
Procedure: as §1

AZD6244 = compound: Cn1cnc2c(F)c(Nc3ccc(Br)cc3Cl)c(C(=O)NOCCO)cc21 [AZD6244]; conditions: top dose 4 µM; screen: GDSC drug entry 1498; top dose inferred
Procedure: as §1

AS601245 = compound: N#CC(c1ccnc(NCCc2cccnc2)n1)c1nc2ccccc2s1 [AS601245]; conditions: top dose 8 µM; top dose inferred
Procedure: as §1

Cell Line	AUC (YM201636)	IC50 (YM201636) [µM]	AUC (EX-527)	IC50 (EX-527) [µM]	AUC (AZD6244)	IC50 (AZD6244) [µM]	AUC (AS601245)	IC50 (AS601245) [µM]
H2461 (mesothelioma, adherent)	0.94	> 5.12	0.979	> 20	0.844	4	0.877	> 8
H2591 (mesothelioma, adherent)	0.898	> 5.12	0.982	> 20	0.877	> 4	0.858	> 8
H2595 (mesothelioma, adherent)	0.954	> 5.12	0.976	> 20	0.906	> 4	0.887	> 8
H2722 (mesothelioma, adherent)	0.966	> 5.12	0.978	> 20	0.955	> 4	0.764	3.45
H2731 (mesothelioma, adherent)	0.793	2.72	0.949	> 20	0.875	> 4	0.95	> 8
H2795 (mesothelioma, adherent)	0.823	2.97	0.987	> 20	0.772	1.52	0.945	> 8
H2803 (mesothelioma, adherent)	0.978	> 5.12	0.985	> 20	0.82	2.79	0.791	4.26
H2818 (mesothelioma, adherent)	0.989	> 5.12	0.983	> 20	0.908	> 4	0.989	> 8
H2869 (mesothelioma, adherent)	0.85	> 5.12	0.984	> 20	0.905	> 4	0.743	2.99
H3118 (head and neck, adherent)	0.86	4.95	0.983	> 20	0.207	0.031	0.747	2.77
H3255 (lung adenocarcinoma, adherent)	0.916	> 5.12	0.983	> 20	0.907	> 4	0.82	5.78
HARA (lung squamous cell carcinoma, adherent)	0.9	> 5.12	0.98	> 20	0.963	> 4	0.919	> 8
HCC38 (breast, adherent)	0.885	> 5.12	0.974	> 20	0.984	> 4	0.777	3.49
HCC70 (breast, adherent)	0.939	> 5.12	0.987	> 20	0.85	2.95	0.844	5.57
HCC202 (breast, adherent)	0.736	2.02	0.976	> 20	0.972	> 4	0.857	> 8
HCC1143 (breast, adherent)	0.896	> 5.12	0.978	> 20	0.78	2.37	0.789	5.22
HCC1395 (breast, adherent)	0.894	> 5.12	0.984	> 20	0.91	> 4	0.904	> 8
HCC1419 (breast, adherent)	0.902	> 5.12	0.982	> 20	0.957	> 4	0.911	> 8
HCC1428 (breast, adherent)	0.98	> 5.12	0.988	> 20	0.901	> 4	0.908	> 8
HCC1569 (breast, adherent)	0.86	> 5.12	0.978	> 20	0.969	> 4	0.684	1.96
HCC1806 (breast, adherent)	0.948	> 5.12	0.983	> 20	0.953	> 4	0.649	1.24

Cell Line	AUC (YM201636)	IC50 (YM201636) [µM]	AUC (EX-527)	IC50 (EX-527) [µM]	AUC (AZD6244)	IC50 (AZD6244) [µM]	AUC (AS601245)	IC50 (AS601245) [µM]
HCC1937 (breast, adherent)	0.795	2.81	0.985	> 20	0.939	> 4	0.804	4.77
HCC1954 (breast, adherent)	0.97	> 5.12	0.983	> 20	0.932	> 4	0.83	6.18
HCC-15 (lung squamous cell carcinoma, adherent)	0.965	> 5.12	0.977	> 20	0.46	0.188	0.882	> 8
HCC-44 (lung adenocarcinoma, adherent)	0.879	5.07	0.969	> 20	0.831	2.46	0.854	6.08
HCC-56 (large intestine, adherent)	0.823	3.11	0.987	> 20	0.567	0.384	0.835	5.45
HCC-78 (lung adenocarcinoma, adherent)	0.896	> 5.12	0.968	> 20	0.89	> 4	0.937	> 8
HCC-827 (lung adenocarcinoma, adherent)	0.975	> 5.12	0.981	> 20	0.94	> 4	0.713	2.21
HCE-4 (oesophagus, adherent)	0.992	> 5.12	0.984	> 20	0.931	> 4	0.864	5.39
HCT-15 (large intestine, adherent)	0.921	> 5.12	0.979	> 20	0.962	> 4	0.822	5.06
HDQ-P1 (breast, adherent)	0.94	> 5.12	0.975	> 20	0.9	> 4	0.849	7.86
HEC-1 (endometrium, adherent)	0.977	> 5.12	0.989	> 20	0.962	> 4	0.908	> 8
HGC-27 (stomach, adherent)	0.741	1.37	0.982	> 20	0.989	> 4	0.762	2.46
HLE (liver, adherent)	0.84	3.24	0.959	> 20	0.927	> 4	0.764	2.74
HMV-II (melanoma, adherent)	0.878	> 5.12	0.974	> 20	0.458	0.188	0.544	0.677
HN (head and neck, adherent)	0.989	> 5.12	0.989	> 20	0.709	0.929	0.989	> 8
HO-1-N-1 (head and neck, adherent)	0.968	> 5.12	0.988	> 20	0.634	0.566	0.866	6.2
HO-1-u-1 (head and neck, adherent)	0.911	> 5.12	0.988	> 20	0.952	> 4	0.863	6.43
HOP-92 (large cell lung carcinoma, adherent)	0.984	> 5.12	0.978	> 20	0.853	3.91	0.895	> 8
HOS (osteosarcoma, adherent)	0.988	> 5.12	0.988	> 20	0.95	> 4	0.823	3.73
HPAC (pancreas, adherent)	0.942	> 5.12	0.979	> 20	0.905	> 4	0.88	> 8
HPAF-II (pancreas, adherent)	0.947	> 5.12	0.979	> 20	0.725	1.35	0.942	> 8

Cell Line	AUC (YM201636)	IC50 (YM201636) [µM]	AUC (EX-527)	IC50 (EX-527) [µM]	AUC (AZD6244)	IC50 (AZD6244) [µM]	AUC (AS601245)	IC50 (AS601245) [µM]
HSC-2 (head and neck, adherent)	0.982	> 5.12	0.989	> 20	0.981	> 4	0.861	5.93
HSC-3 (head and neck, adherent)	0.979	> 5.12	0.989	> 20	0.587	0.418	0.901	7.75
HT55 (large intestine, adherent)	0.979	> 5.12	0.99	> 20	0.81	2.1	0.92	> 8
HT-3 (cervix, adherent)	0.934	> 5.12	0.987	> 20	0.882	> 4	0.917	> 8
HT-29 (large intestine, adherent)	0.945	> 5.12	0.986	> 20	0.423	0.154	0.837	5.36
HT-115 (large intestine, adherent)	0.99	> 5.12	0.977	> 20	0.929	> 4	0.948	> 8
HT-1080 (fibrosarcoma, adherent)	0.973	> 5.12	0.989	> 20	0.811	1.85	0.866	5.94
HT-1197 (bladder, adherent)	0.96	> 5.12	0.985	> 20	0.879	> 4	0.85	7.87
HT-1376 (bladder, adherent)	0.985	> 5.12	0.983	> 20	0.752	1.54	0.794	4.42
HTC-C3 (thyroid, adherent)	0.856	4.96	0.969	> 20	0.437	0.165	0.837	6.32
Hep 3B2_1-7 (liver, adherent)	0.95	> 5.12	0.973	> 20	0.869	3.67	0.858	6.53
Hs633T (fibrosarcoma, adherent)	0.903	4.55	0.986	> 20	0.562	0.358	0.843	4.22
Hs683 (glioma, adherent)	0.955	> 5.12	0.988	> 20	0.963	> 4	0.872	7.76
Hs766T (pancreas, adherent)	0.979	> 5.12	0.984	> 20	0.776	2.14	0.827	7.18
Hs939-T (melanoma, adherent)	0.973	> 5.12	0.98	> 20	0.592	0.458	0.882	> 8
Hs940-T (melanoma, adherent)	0.984	> 5.12	0.984	> 20	0.976	> 4	0.706	2.18
Hs-578-T (breast, adherent)	0.968	> 5.12	0.981	> 20	0.79	1.9	0.868	> 8
HuCCT1 (biliary tract, adherent)	0.896	> 5.12	0.978	> 20	0.538	0.322	0.814	5
HuH-7 (liver, adherent)	0.987	> 5.12	0.978	> 20	0.94	> 4	0.896	> 8
HuO9 (osteosarcoma, adherent)	0.927	> 5.12	0.981	> 20	0.96	> 4	0.962	> 8
HuO-3N1 (osteosarcoma, adherent)	0.953	> 5.12	0.982	> 20	0.967	> 4	0.561	0.772

IC50 is the fitted dose that halves viability relative to control wells, and lower means more sensitive; fits outside the tested doses are given as limits. For AUC the same curve is integrated over the 256-fold range of doses and scaled to a fraction: 1 means no effect, lower means more sensitive. For part of these data: Any top dose called inferred was derived from the fitted curves, not read from the paper. For part of these data: Where an entry number is given, a second screen of the drug exists; the two often differ.
